Results as given in US12441811B2, “Compositions and methods for treating serpin B13 disorders” (REGENTS OF THE UNIVERSITY OF MINNESOTA, priority 2019, dated 2025).

Tested on: human serpinB13 and other clade B serpins
Assay: Specificity of human anti-serpinB13 antibodies (ELISA, Luminex-based assay)
Format: binding
Settings: Luminex at 1.0 μg/mL
Experimental: Human anti-serpinB13 mAbs bind specifically to serpinB13, but not to other members of the clade B protein family. To produce human antibody to serpinB13, three rounds of biopanning were performed, using Fab library (1×10^11 antibody specificities), against recombinant human serpinB13 produced in baculovirus and immobilized on solid matrix. Screening of individual clones by ELISA led to DNA fingerprinting and sequencing of three unique clones. Positive antibodies were tested by ELISA for binding to the target antigen and cross-reactivity with other proteins. The Fab fragments were then reformatted into fully human full-length IgG1. […] It was also noticed that these mAbs recognize both mouse and human serpinB13.
Recombinant proteins and their expression. […]
Luminex assay. […] The data were expressed as fluorescence intensity (F.I.) due to serum binding activity in the presence of beads precoated with serpinB13 and after subtracting the average F.I. due to serum binding activity in the presence of beads precoated with control proteins, Gfp and Scgn (e.g. F.I^B13−[F.I.^GFP+F.I.^Scgn]/2). The samples were evaluated based on the level of F.I. and the degree of inhibition of binding to serpin-B13 coated beads with soluble serpinB13 (2.5 μg/mL), compared with the bovine serum albumin (BSA). […]

B1: mAbs1: fully human full-length IgG1 to serpinB13; Clone1 heavy SEQ ID NO:31, light SEQ ID NO:37 (antibody)
heavy: QVQLQESGGGVVQPGRSLRLSCAASGFTFSSYGMHWVRQAPGKGLEWVAVISYDGSNKYYADSVKGRFTISRDNSKNTLYLQMNSLRAEDTAVYYCARDLGAVIAVAGTSTPYNWFDPWGQGTLVTVSS[human IgG1 constant region omitted]
light: DVVMTQSPLSLPVTPGEPASISCRSRQSLLHSNGHNYLGWYLQKPGQSPQLLIYLASIRASGIPDRFSGSGSGTDFTLKISRVEAEDVGVYYCMQALQTPYTFGQGTKLEIKRTVAAPSVFIFPPSDEQLKSGTASVVCLLNNFYPREAKVQWKVDNALQSGNSQESVTEQDSKDSTYSLSSTLTLSKADYEKHKVYACEVTHQGLSSPVTKSFNRGEC
specificity of binding: serpinB13 versus other clade B serpins: specifically recognize human serpinB13 but no other serpins of clade B family
